# PubChem BioAssay AID1963576 (National Center for Advancing Translational Sciences (NCATS), 2024)
# Hit rate of the full screen: of about 46,000 compounds, about 60 (0.1%) were called active. Not shown: some 3% with an inconclusive outcome. Calls come from the whole dose curve; as a rule, active = well fitted inhibition curve with a large enough effect; inconclusive = small, poorly fitted or top-dose-only effect; inactive = no such curve, though single readings can be large or run the other way. Some of the results follow.
# Test: Primary qHTS assay for Inhibitors of ovarian cancer metastasis using an organotypic tumor microenvironment (TME) model.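 For activity change, negative = inhibition: plate controls were DMSO wells for no effect and tomatine positive control wells for full effect.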 Note: nearly all actives have a fitted effect of over 65% in size.
# Settings: SKOV3ip1-GFP adhesion/invasion on 3D omental model, fluorescence; series mostly up to 45.8 µM; activity change, negative = inhibition: at the top concentration
# Summary of the method: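 Primary human omental fibroblast/mesothelial 3D culture pre-formed 48 h. SKOV3ip1-GFP cells added with compounds (0.36-46 umol/L), incubated 2 h RT/16 h 37 C, fixed; GFP cells quantified at 488/509 nm.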
Structure (SMILES),outcome,"activity change, negative = inhibition"
CCc1nn2c(=O)cc(COC(=O)COc3ccc(OC)cc3)nc2s1,inactive,–
Cc1c(C(=O)Nc2cccc(C(F)(F)F)c2)oc2ccc3c(c12)C(=O)CC(C)(C)O3,–,inactive: 3.52%
CCc1ccc(S(=O)(=O)Nc2cc3c(C(=O)OCc4ccccc4)c(C)oc3c3ccccc23)cc1,–,inactive: -0.939%
COc1ccc(-c2nc(C)c(CCNS(=O)(=O)c3cc(Cl)ccc3Cl)s2)cc1,inactive,–
O=C(CNC(=O)c1ccc(F)cc1)OCc1cc(=O)n2nc(C3CC3)sc2n1,–,inactive: 0.82%
O=C(CCn1cnc2ccccc2c1=O)NCc1ccccc1Cl,–,inactive: -1.04%
CCc1nc2nc(C)c(NS(=O)(=O)c3ccc(C(C)(C)C)cc3)c(=O)n2[nH]1,–,inactive: -2.02%
Cn1c(=O)oc2cc(S(=O)(=O)NCCC(=O)Nc3ccc(F)cc3F)ccc21,–,inactive: 6.74%
CCOC(=O)c1cc2c(=O)n3ccccc3nc2n(CCOC)c1=NC(=O)c1c(-c2ccccc2Cl)noc1C,–,inactive: 13.2%
Cc1c(NC(=O)c2ccc(-c3cccc([N+](=O)[O-])c3)o2)cccc1-c1nc2cc(Cl)ccc2o1,–,inactive: 26.1%
COc1cccc(-n2c(=O)c3sc4ccccc4c3n(CC(=O)NC3CCCCC3)c2=O)c1,–,inactive: 6.98%
CCCCC(=O)NC1CC(=O)N(c2ccc3c(c2)OCCO3)C1 (stereo not drawn),inactive,–
COc1ccc(CNC(=O)Cn2c(=O)nc(-c3ccccc3)c3ccccc32)cc1OC,–,inactive: 0.153%
CC(C)CCNC(=O)Cc1ccc(NC(=O)N2CCCCc3ccccc32)cc1,–,inactive: 9.14%
O=C(NCCC1=CCCCC1)c1ccc2c(c1)N(Cc1cccc(Cl)c1)C(=O)c1ccccc1S2=O (stereo not drawn),–,inactive: 15.1%
CCN(CC)S(=O)(=O)c1ccc(OC)c(-n2cnnn2)c1,–,inactive: 3.82%
Cc1ccc(S(=O)(=O)N(CC(=O)Nc2ccc3c(c2)OCO3)c2cc(Cl)cc(Cl)c2)cc1,–,inactive: 3.23%
Cc1cc(OCC(=O)Nc2ncn[nH]2)ccc1Cl,–,inactive: -7.11%
CCc1ccc(CNC(=O)c2nn(-c3ccc(C)cc3)c(=O)c3c2c2ccccc2n3C)cc1,–,inactive: -24.4%
CCCCn1c(SCC(=O)c2ccccc2)nc2c(sc3ccccc32)c1=O,–,inactive: -2.55%
CCN(C(=O)Cn1nnc2sc3c(c2c1=O)CCC(C(C)(C)C)C3)c1cccc(C)c1 (stereo not drawn),–,inactive: -7.96%
COC(=O)c1cc2oc3ccccc3c2n1Cc1nc(-c2ccc(Cl)cc2)oc1C,–,inactive: -4.69%
Cc1nc2c(-c3ccc(F)cc3)c(C)nn2c(C)c1CCC(=O)N1CCN(c2ccccc2)CC1,inactive,–
Cc1ccc(-n2nc3ccc(NC(=O)COc4ccccc4C)cc3n2)cc1,–,inactive: -16.3%

Structure (SMILES),outcome,"activity change, negative = inhibition"
CCC1CN(S(=O)(=O)c2cc(-c3cc(C)no3)ccc2C)c2cc(C)ccc2O1 (stereo not drawn),inactive,–
COc1cc(CCC(=O)NCc2ccc3c(c2)CCN3C(=O)c2ccccc2)cc(OC)c1OC,–,inactive: -7.72%
CC(=O)c1ccc(N2CCN(C(=O)C3CCCN(S(=O)(=O)c4ccc(Br)s4)C3)CC2)cc1 (stereo not drawn),–,inactive: 0.371%
CSc1ccc(CCNC(=O)c2cc(C)nc3c2c(C)nn3-c2ccccc2)cc1,–,inactive: -22.5%
CC(=O)N1CCN(c2ccc(OCc3nn(C)c(C)c3-c3cccc4c(CCCOc5cc(C)c(Cl)c(C)c5)c(C(=O)O)n(Cc5cccnc5)c34)cc2)CC1,–,inactive: 19.4%
Cc1ccc(-c2nnc(Nc3cccc(Cl)c3)c3ccccc23)cc1S(=O)(=O)N1CCCCC1,–,inactive: -11.2%
Cc1ccc(-n2nc(CO)c(C(=O)NCCCCc3ccccc3)n2)cc1C,–,inactive: -19.4%
Cc1ccc(C)c(N2CCN(S(=O)(=O)c3cc(-c4cc(C)no4)ccc3C)CC2)c1,–,inactive: -20.7%
Cc1nc2cccnc2n1-c1cccc(C(=O)N2CCN(c3cccc(Cl)c3)CC2)c1,inactive,–
COc1ccc(-c2nnc(SCC(=O)NCCc3ccc(OC)c(OC)c3)nc2-c2ccc(OC)cc2)cc1,–,inactive: -9.94%
COc1ccc(-c2ccc3c(N)c(C(=O)Nc4ccc(C(F)(F)F)cc4)sc3n2)cc1OC,–,inactive: -3.78%
CC1=Nc2cc(C(=O)NCc3ccccc3Cl)ccc2Sc2c(C)ccc(C)c21,–,inactive: -1.75%
CCCn1c(=O)n(-c2ccccc2Cl)c(=O)c2sc3ccccc3c21,inactive,–
Cc1cc(C)c(NC(=O)Cn2nc(-c3ccncc3)ccc2=O)c(C)c1,–,inactive: -5.29%
O=C(CN1C(=O)C(c2ccc(F)cc2)=NC12CCCCCC2)Nc1ccccc1Cl,–,inactive: -6.56%
COc1ccc(C2=C(C)C(=NCCCN3CCN(c4cc(C)ccc4C)CC3)NS2(=O)=O)cc1,inactive,–
COc1ccc(N(CC(=O)Nc2cccc(Cl)c2C)S(=O)(=O)c2c(C)nn(C)c2C)cc1,inactive,–
Cc1ccc(NC(=O)c2cccc3c2C(=O)N(C2CCCCC2)C3)c(C)c1,inactive,–
Cc1ccccc1NC(=O)Cn1c(=O)oc2cc(Br)ccc21,inactive,–
COc1ccccc1-c1nc2c(c(SCC(=O)Nc3ccc(C)c(C)c3)n1)Cc1c(CO)cnc(C)c1O2,–,inactive: 23%
COc1cccc(Cn2c(CNC(=O)Cc3cccc(C)c3)nc3cccnc32)c1,inactive,–
CCOC(=O)C1CCCN(c2cc(C)nc3c(-c4ccccc4OC)c(C)nn23)C1 (stereo not drawn),–,inactive: -0.163%
CCc1c(C)sc(NC(=O)c2cc(-c3cccc(Cl)c3)on2)c1C#N,–,inactive: -5.86%
CCCCN(CC)CCCNC(=O)c1nn(C)c2c1CS(=O)(=O)c1ccccc1-2,–,inactive: 5.49%

Structure (SMILES),outcome,"activity change, negative = inhibition"
Cc1ccc(C)c(NC(=O)Cn2cc(C(=O)c3ccco3)c3ccccc32)c1,–,inactive: 0.919%
O=C(c1cc2c(s1)-c1ccccc1OC2)N1CCN(c2ccccc2F)CC1,–,inactive: -0.82%
Cc1c(C)n(C)c2ccc(C(=O)NCCCN3CCCCC3C)cc12 (stereo not drawn),–,inactive: -1.62%
CCCn1cc(S(=O)(=O)c2ccccc2)c(=O)c2cc(F)c(N3CCCC(C)C3)cc21 (stereo not drawn),inactive,–
COc1ccc(C)cc1NC(=O)c1c(C)oc2ncn(CC(C)C)c(=O)c12,–,inactive: -6.14%
CCOC(=O)c1ccc(N2C(=O)c3n[nH]c(-c4ccco4)c3C2c2ccc(O)cc2)cc1 (stereo not drawn),–,inactive: 2.91%
COc1ccc(C)c2sc(N(Cc3cccnc3)C(=O)C3CCCCC3)nc12,–,inactive: 9.48%
CCCN(CCC)CCCNC(=O)C1CCN(S(=O)(=O)CC)CC1,–,inactive: 5.87%
CCCCCOc1c(Cl)cc(C(=O)N(Cc2ccc(C)o2)C2CCS(=O)(=O)C2)cc1Cl (stereo not drawn),inactive,–
Cc1ccc(S(=O)(=O)c2cc3cc(C(=O)O)ccc3oc2=O)cc1,–,inactive: 3.45%
CC1=C(C(=O)Nc2ccccc2)C(c2cccnc2)n2nc(SCc3ccccc3Cl)nc2N1 (stereo not drawn),inactive,–
Cc1cc(C2CCCCC2)n(O)c(=O)c1,–,inactive: -9.81%
CCOC(=O)Cn1c(=O)n(C2CCCCC2)c2nc(-c3cccc(F)c3)nc(C(N)=O)c21,–,inactive: 88.1%
CC(C)c1c(C(=O)Nc2ccccc2)c(-c2ccccc2)c(-c2ccc(F)cc2)n1CC[C@H](O)C[C@@H](O)CC(=O)O,–,inactive: -19.4%
Cc1ccc(CSCC(=O)N2CCN(c3ccccc3F)CC2)cc1,–,inactive: -0.811%
CCn1cc(CCC(=O)NCc2ccccc2OC)c2ccccc21,–,inactive: 6.67%
Cc1ccc(S(=O)(=O)CC(=O)Nc2sc3c(c2C#N)CCCC3)cc1,–,inactive: 2.68%
CCOc1cccc(C(c2c(C)n(C)n(-c3ccccc3)c2=O)c2c(C)n(C)n(-c3ccccc3)c2=O)c1OC,inactive,–
CCOC(=O)c1c(NC(=O)COc2cc(C)ccc2C(C)C)sc(C)c1C,–,inactive: 1.36%
COc1ccc(CCNC(=O)CCCn2c(=O)c3ccccc3n(CC(=O)Nc3cc(Cl)ccc3C)c2=O)cc1OC,inactive,–
CCOc1ccccc1NC(=O)Cn1c(=O)n(-c2ccc(F)cc2)c(=O)c2sc3ccccc3c21,–,inactive: 7.64%
CCOc1ccc(NC(=O)c2nn(C)c3c2CS(=O)(=O)c2ccccc2-3)cc1,–,inactive: 4.58%
CCOc1ccc(-c2nnc(SCC(=O)NCCc3ccc(OC)c(OC)c3)nc2-c2ccc(OCC)cc2)cc1,–,inactive: 3.49%
O=C(c1cccc(Cl)c1)N1CCN(CCc2ccncc2)CC1,–,inactive: -8.28%

Structure (SMILES),outcome,"activity change, negative = inhibition"
COc1ccc(C(=O)Nc2ccc3nc(N4CCC(C)CC4)cc(C)c3c2)cc1,–,inactive: -0.459%
COc1cc(Cl)c(C)cc1NC(=O)c1cn(C2CCCC2)c(=O)c2c1c1ccccc1n2C,–,inactive: 5.06%
Cc1ccc2nc(-c3cc(NC(=O)/C=C/c4ccccc4)ccc3Cl)oc2c1,–,inactive: -21%
Cc1ccccc1-c1noc(CCC(=O)Nc2cccc(C)c2C)n1,inactive,–
O=C(Nc1cccc(OCc2cc(=O)n3c4c(sc3n2)CCCC4)c1)c1ccc(F)cc1,inactive,–
COc1ccc(-c2nc(CSc3nncn4c3cc3occc34)c(C)o2)cc1,–,inactive: -13.8%
COc1ccc(Cl)cc1-n1c(/C=C/c2cccc3ccccc23)nc2ccccc2c1=O,–,inactive: -7.05%
CCOCCCNC(=O)C(Cc1ccccc1)NS(=O)(=O)c1ccc2c(c1)c(=O)n(C)c(=O)n2C (stereo not drawn),inactive,–
CCCCN(CCCC)S(=O)(=O)c1ccc2oc(C(=O)NCc3ccc(C)cc3)c(C)c2c1,–,inactive: 0.475%
CCCCN1C(=O)C(O)(c2c[nH]c3ccccc23)c2cc(Br)ccc21 (stereo not drawn),inactive,–
Cn1c(NCCO)nc2c1c(=O)n(Cc1cccc(F)c1)c(=O)n2C,inactive,–
COC(=O)c1ccc2c(c1)N(Cc1ccc(F)cc1)C(=O)c1ccccc1S2,–,inactive: 12.7%
COc1cccc(/C=C/c2nc(C#N)c(NCCc3ccc(OC)c(OC)c3)o2)c1,inactive,–
Cc1nn(C(=O)c2ccc(Br)cc2)c(C)c1S(=O)(=O)N1CCOCC1,–,inactive: 21.4%
Cc1coc2c(C)c3oc(=O)c(CCC(=O)NCCc4ccccc4)c(C)c3cc12,–,inactive: -1.14%
CCOc1ccc(CCNC(c2cccc(Cl)c2)c2nnc(-c3ccccc3)o2)cc1OCC (stereo not drawn),–,inactive: -25.4%
CCc1ccc(-c2[nH]c3c(c2-c2sc(C)c(C(=O)OC)c2O)c(=O)[nH]c(=O)n3C)cc1,–,inactive: -3.35%
COc1ccc(-c2cc(C(F)(F)F)nc(SCCC(=O)Nc3cc(C)ccc3O)n2)cc1,–,inactive: -3.64%
COc1ccc2c(c1)sc1ncc(C(=O)NCc3ccc(OC(C)C)cc3)c(=O)n12,–,inactive: 29.6%
O=C(NCCc1ccc(Cl)cc1)c1cnc2sc(N3CCCCC3)nn2c1=O,–,inactive: 13.8%
Cc1ccc(NC(=O)Cn2c(=O)n(Cc3ccco3)c(=O)c3sc4ccccc4c32)cc1C,inactive,–
